Measured values reported in US20250214977A1, “STAT6 INHIBITORS AND USES THEREOF” (Kymera Therapeutics, Inc., priority 2024, published 2025).

Target: T1, biotinylated truncated STAT6 (123-632)-avi (Homo sapiens, UniProt P42226)
T1 sequence (P42226 123-632 limits assumed): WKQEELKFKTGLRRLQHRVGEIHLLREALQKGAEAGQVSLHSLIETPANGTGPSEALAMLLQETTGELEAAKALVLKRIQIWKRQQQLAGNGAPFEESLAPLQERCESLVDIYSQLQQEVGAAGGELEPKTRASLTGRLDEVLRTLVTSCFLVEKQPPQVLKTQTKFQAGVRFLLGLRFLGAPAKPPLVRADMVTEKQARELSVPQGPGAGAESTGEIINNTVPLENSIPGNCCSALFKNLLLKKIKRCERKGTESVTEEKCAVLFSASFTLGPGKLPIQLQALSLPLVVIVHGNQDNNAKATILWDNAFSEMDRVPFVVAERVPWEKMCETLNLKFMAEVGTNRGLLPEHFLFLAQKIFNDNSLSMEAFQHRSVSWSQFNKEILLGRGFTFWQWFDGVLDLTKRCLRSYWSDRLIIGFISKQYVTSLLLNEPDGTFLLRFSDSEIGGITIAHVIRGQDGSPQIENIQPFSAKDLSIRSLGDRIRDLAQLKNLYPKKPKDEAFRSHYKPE
Experiment: Homogenous Time-Resolved Fluorescence (HTRF) binding assay
Conditions: 0.15 nM biotinylated truncated STAT6 (123-632)-avi, 20 nM fluorescein-labeled probe

Row | Compound | IC50 (30 minutes at room temperature) [nM] | IC50 (30 minutes room temperature) [nM]
1 | CN(C)C(=O)c1cc2cc(C3=CCCN(C(=O)C4Cc5c(cccc5OCCN)CN4C=O)C3)ccc2o1 (centres unmarked) [Example I-171] | 1000 to 10000 | –
2 | CN(C)C(=O)c1cc2ccc(C3=CCCN(C(=O)CCn4ccnn4)C3)cc2[nH]1 [Example I-1685] | – | < 100
3 | COc1cc(F)cnc1N1CCN(C(=O)c2cc3c(-c4cccc(-n5nc(C)cc5C)c4)cc(C4=CCCN(C(=O)CCn5ccnn5)C4)c(F)c3[nH]2)CC1 [Example I-620] | < 100 | –
4 | COc1ccccc1-c1cc(C2=CCCN(C(=O)CCn3ccnn3)C2)c(F)c2[nH]c(C(=O)N3CCN(c4nccc(-c5cn(C)c6ccccc56)n4)CC3)cc12 [Example I-906] | < 100 | –
5 | CN(C)C(=O)c1cc2ccc(C3=CCCN(C(=O)C4CC(O)C4)C3)cc2[nH]1 (centres unmarked) [Example I-28] | 10000 to 100000 | –
6 | (S)-5-(1-(2-formyl-1,2,3,4-tetrahydroisoquinoline-3-carbonyl)-1,2,5,6-tetrahydropyridin-3-yl)-7-(2-methoxyphenyl)-N,N-dimethylbenzofuran-2-carboxamide [Example I-805] | < 100 | –
7 | (R)-1-(3-(7-fluoro-2-(4-(5-fluoro-3-methoxypyridin-2-yl)piperazine-1-carbonyl)-4-(1-methylpyrrolidin-3-yl)-1H-indol-6-yl)-5,6-dihydropyridin-1(2H)-yl)-3-(1H-1,2,3-triazol-1-yl)propan-1-one [Example I-812] | < 100 | –
8 | CN(C)C(=O)c1cc2ccc(C3=CCCN(C(=O)CCC(=O)O)C3)cc2[nH]1 [Example I-112] | > 100000 | –
9 | COc1cnccc1-c1cc(C2=CCCN(C(=O)CCn3ccnn3)C2)cc2cc(C(=O)N(C)C)oc12 [Example I-1067] | < 100 | –
10 | CCCCOc1ccc(-c2cc(C3=CCCN(C(=O)CCn4ccnn4)C3)c(F)c3[nH]c(C(=O)N4CCN(c5ncc(F)cc5OC)CC4)cc23)cc1 [Example I-1127] | 100 to 1000 | –
11 | O=C(CCn1ccnn1)N1CCC=C(c2ccc3cc(C(=O)N4CCN(CCCF)CC4)[nH]c3c2F)C1 [Example I-1634] | – | 100 to 1000
12 | CC(=O)N1CCC=C(c2cc(-c3nc4ccccc4s3)c3cc(C(=O)N(C)C)[nH]c3c2F)C1 [Example I-1561] | – | 100 to 1000
13 | COc1cccnc1N1CCN(C(=O)c2cc3c(-c4ccccc4C#N)cc(C4=CCCN(C(=O)CCn5ccnn5)C4)c(F)c3[nH]2)CC1 [Example I-573] | < 100 | –
14 | COc1ccccc1-c1cc(C2=CCCN(C(=O)CCn3ccnn3)C2)c(F)c2[nH]c(C(=O)N3CCc4nc[nH]c(=O)c4C3)cc12 [Example I-1388] | – | < 100
15 | COc1ccccc1-c1cc(C2=CCCN(C(=O)CCn3ccnn3)C2)c(F)c2[nH]c(C(=O)N3CCC4(CC3)OCCO4)cc12 [Example I-1000] | < 100 | –
16 | CCc1nc(C)ccc1-c1cc(C(=O)N2CCN(c3nc(C)c(F)cc3OC)CC2)cc2cc(C3=CCCN(C(=O)CCn4ccnn4)C3)n(CC3CC3)c12 [Example I-546] | > 100000 | –
17 | COc1ccccc1-c1cc(C2=CCCN(C(=O)CCn3ccnn3)C2)c(F)c2[nH]c(C(=O)N3CCC[C@@H]3c3cccc(F)c3)cc12 [Example I-1542] | – | 1000 to 10000
18 | CCc1ccncc1-c1cc(C2=CCCN(C(=O)CCn3ccnn3)C2)c(F)c2[nH]c(C(=O)N3CCN(c4ncc(C(F)(F)F)cc4OC)CC3)cc12 [Example I-1040] | < 100 | –
19 | CN(C)C(=O)c1cc2cc(C3=CCCN(C(=O)Cc4ccc5ccccc5c4)C3)ccc2o1 [Example I-295] | 10000 to 100000 | –
20 | CC(=O)N1CCC=C(c2cc(-c3cc(F)ccc3C(F)(F)F)c3cc(C(=O)N(C)C)[nH]c3c2F)C1 [Example I-1495] | – | 100 to 1000
21 | CN(C)C(=O)c1cc2cc(C3=CCCN(C(=O)CCn4ccnn4)C3)cc(Oc3ccccc3)c2o1 [Example I-1571] | – | < 100
22 | COc1ccccc1-c1cc(C2=CCCN(C(=O)CCn3ccnn3)C2)c(F)c2[nH]c(C(=O)N3CC4(C3)CN(c3ncccc3OC)C4)cc12 [Example I-1456] | – | < 100
23 | COc1ccccc1-c1cc(C2=CCCN(C(=O)CCn3ccnn3)C2)c(F)c2[nH]c(C(=O)N(CCO)Cc3cccc(Br)c3)cc12 [Example I-1597] | – | 1000 to 10000
